PMC4336329 (PLoS ONE, 2015)
Among all 310,000 compounds or so, about 2,200 (0.71%) showed an effect of 50% or more. The effect is printed as a negative number. Some of the results follow.

Each compound was assayed against human ether-à-go-go-related gene (hERG) potassium channel (human, UniProt Q12809) (assay: primary screen, population patch clamp on CHO cells stably expressing hERG).
human ether-à-go-go-related gene (hERG) potassium channel, sequence (Q12809 whole entry, looked up): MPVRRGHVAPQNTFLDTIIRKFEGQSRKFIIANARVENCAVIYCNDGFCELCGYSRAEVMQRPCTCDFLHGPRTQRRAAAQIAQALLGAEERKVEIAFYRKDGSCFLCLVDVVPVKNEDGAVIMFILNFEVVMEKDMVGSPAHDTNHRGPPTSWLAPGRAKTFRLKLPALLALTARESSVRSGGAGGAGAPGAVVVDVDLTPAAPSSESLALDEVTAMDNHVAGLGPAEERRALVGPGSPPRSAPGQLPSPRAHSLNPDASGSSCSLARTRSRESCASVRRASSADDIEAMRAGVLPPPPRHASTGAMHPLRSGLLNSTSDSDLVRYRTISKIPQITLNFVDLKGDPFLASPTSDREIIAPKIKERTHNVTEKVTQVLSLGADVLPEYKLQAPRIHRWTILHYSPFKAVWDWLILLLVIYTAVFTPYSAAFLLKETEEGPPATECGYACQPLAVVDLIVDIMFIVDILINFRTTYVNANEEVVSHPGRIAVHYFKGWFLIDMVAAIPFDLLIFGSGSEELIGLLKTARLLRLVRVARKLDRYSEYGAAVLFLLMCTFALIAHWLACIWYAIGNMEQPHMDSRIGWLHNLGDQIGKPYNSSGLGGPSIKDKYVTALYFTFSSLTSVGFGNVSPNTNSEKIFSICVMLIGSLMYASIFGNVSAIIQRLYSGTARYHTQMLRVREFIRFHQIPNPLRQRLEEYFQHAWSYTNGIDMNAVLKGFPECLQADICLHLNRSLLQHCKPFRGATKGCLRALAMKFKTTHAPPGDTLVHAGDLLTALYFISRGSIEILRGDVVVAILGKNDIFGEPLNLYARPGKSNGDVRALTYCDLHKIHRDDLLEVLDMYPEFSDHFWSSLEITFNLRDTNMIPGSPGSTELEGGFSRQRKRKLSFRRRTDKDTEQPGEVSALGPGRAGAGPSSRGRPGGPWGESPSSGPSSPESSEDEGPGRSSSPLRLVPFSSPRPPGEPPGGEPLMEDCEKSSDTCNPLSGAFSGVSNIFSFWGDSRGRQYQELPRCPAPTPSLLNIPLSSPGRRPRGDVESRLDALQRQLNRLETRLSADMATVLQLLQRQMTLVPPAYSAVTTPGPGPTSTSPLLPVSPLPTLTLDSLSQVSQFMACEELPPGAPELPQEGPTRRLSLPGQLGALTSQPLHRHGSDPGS

Compound | hERG current change (%, negative = inhibition) at 1uM
O=C(O)Cc1ccc(NC(=O)c2ccc3c(c2)C(=O)N(CC2CCCO2)C3=O)cc1 (stereo not drawn) | 7.26%
O=C1c2ccccc2C(=O)c2c1ccc(C(=O)N1CCCCC1)c2NCCO | -11.5%
O=C1CCc2cc(S(=O)(=O)N3CCN(c4ccc(F)cc4)CC3)cc3c2N1CC3 | 5.09%
COc1ccc(C(=O)c2ccc(OC)c(N)c2)cc1N | 1.51%
COc1cc2c(cc1OC)CN(c1ccc([N+](=O)[O-])cc1C#N)CC2 | -7.03%
Cc1ccc(CNS(=O)(=O)c2c(C)nc3scc(C)n3c2=O)cc1 | 11%
CC(Cc1ccccc1Sc1ccc(O)cc1)N(C)C.CCO.Cl (stereo not drawn) | -73.1%
CCC(=O)NC(c1ccc(OC)cc1)c1c(O)ccc2ccccc12 (stereo not drawn) | -7.87%
COc1ccc(OC)c(N2C(=O)CC(Cc3ccc(Cl)cc3)C2=O)c1 (stereo not drawn) | 6.7%
S=C1CCC(c2ccc(Cl)cc2)=NN1c1ccccc1 | 11.9%
Cc1[nH]c2c(Cl)cccc2c(=O)c1CN1CCCC1 | 5.95%
O=c1c2cc(NC(=S)NCCN3CCCCCC3)ccc2nc2n1CCCCC2 | 7.57%
O=C(NC(=S)Nc1cccc2cccnc12)c1cccs1 | 8.03%
S=c1[nH]ncn1/N=C/c1ccc(N2CCOCC2)cc1 | 18.8%
Cc1ccc(C)c2[nH]c(=O)c(CCNC(=O)c3ccc(Br)o3)cc12 | 7.83%
Cc1ccc(CNC(=O)CSc2ccc(-c3ccco3)nn2)cc1 | -1.64%
CC(NC(=O)Cc1cccs1)C(c1cccs1)N1CCN(c2ccccc2)CC1 (stereo not drawn) | 3.53%
Cc1ccc2nc(SC(C)C(=O)NC3CCCc4ccccc43)[nH]c2c1 (stereo not drawn) | 11.6%
CC(OC(=O)c1cc(S(=O)(=O)N(C)c2ccccc2)ccc1Cl)C(=O)Nc1ccc2c(c1)OCCO2 (stereo not drawn) | 12.6%
CCCCNC(=O)C1CC(c2ccccc2[N+](=O)[O-])=NO1 (stereo not drawn) | 14.5%
CCOc1cccc2c1OC1(CCCCC1)N1N=C(c3cccnc3)CC21 (stereo not drawn) | 8.98%
CC1CCCC(NC(=O)C2CCN(S(=O)(=O)N3CCCCCC3)CC2)C1C (stereo not drawn) | 9.63%
CCN(CC)c1ccc(NC(=O)c2cnccn2)cc1S(=O)(=O)Nc1ccc(OC)cc1 | -9.2%

Compound | hERG current change (%, negative = inhibition) at 1uM
COc1cc(/C=C(\NC(C)=O)C(=O)NC(C)(C)C)ccc1OC(C)=O | 20.1%
C/C(CC(=O)N(C(C)C)C(C)C)=N\NC(=O)COc1ccc(Br)cc1Br | -12.6%
CCOC(=O)N1CCN(S(=O)(=O)c2ccc(C(=O)N(CCCN(C)C)c3nc4cc(OC)ccc4s3)cc2)CC1.Cl | -17.4%
Cn1ccnc1SCC(=O)Nc1cccc(S(=O)(=O)N2CCCCC2)c1 | -3.72%
CN(CC(=O)Nc1cccc(F)c1)C(=O)CSc1nc2ccccc2s1 | 5.82%
OCC[C@H]1C[C@H](O)[C@@H](O)[C@@]2(OCCCc3ccccc32)O1 | 8.1%
Cc1cccc(OCC(O)Cn2c(NCc3cccnc3)nc3c2c(=O)[nH]c(=O)n3C)c1 (stereo not drawn) | 16.1%
CS(=O)(=O)c1ccc(Cl)c(NC(=O)COC(=O)CCCN2C(=O)c3cccc4cccc(c34)C2=O)c1 | 0.589%
Cc1ccc(S(=O)(=O)Cc2ccc(C(=O)N3CCCCCC3)o2)cc1 | -7.22%
Cc1cccc(N=Nc2c(C)c(C#N)c(O)[nH]c2=O)c1 | 15.6%
CC(C)n1c(SCC(N)=O)nc2c1c(=O)n(C)c(=O)n2C | 7.73%
CN(c1cccc(NC(=O)c2ccc(Cl)c(S(=O)(=O)Nc3ccccc3)c2)c1)S(C)(=O)=O | -7.24%
O=C(N/C(=C/c1cccc([N+](=O)[O-])c1)C(=O)N1CCCCC1)c1cccs1 | 1.23%
CSc1ccccc1C(=O)Nc1nccs1 | -5.6%
CCOC(=O)c1c(C)n(CCO)c2ccc(O)cc12 | -1.23%
COc1ccc(NC(=S)N(CCCN2CCOCC2)Cc2ccccn2)cc1 | 0.885%
COc1ccc(-c2[nH]c(-c3ccc4c(c3)OCO4)nc2-c2ccccc2)cc1 | 0.88%
COc1ccc(S(=O)(=O)NCc2ccccn2)cc1NC(=O)c1ccccc1C | 9.42%
CN1CCN(c2ccc(NC(=O)c3ccc(Cl)cc3)cn2)CC1 | -13.5%
COc1ccccc1CNc1nc(C)c(C(C)=O)s1 | 12.8%
COc1ccccc1N1CCN(C(=O)CCSCc2ccccc2F)CC1 | 13.8%
Cc1ccc(S(=O)(=O)N2CCCC(C(=O)N(Cc3cccs3)C3CC3)C2)cc1 (stereo not drawn) | -0.286%
CS(=O)(=O)N1CCN(C(=O)c2ccccc2F)CC1 | 8.61%

Compound | hERG current change (%, negative = inhibition) at 1uM
Cc1nc(S(=O)(=O)Nc2ccccc2C(=O)NCC2CC2)cn1C | 17.6%
O=C(c1cc2c(s1)CCCCCC2)N1CCC2(CC1)OCCO2 | 9.04%
COCCCN1C(=O)C(=O)/C(=C(/O)c2ccc(S(=O)(=O)N3CCOCC3)cc2)C1c1cccc(Cl)c1 (stereo not drawn) | 10.7%
Cc1cccc(NC(=O)c2ccc([N+](=O)[O-])o2)n1 | 3.03%
COc1cc2c(cc1OC)C(c1ccccc1)NCC2 (stereo not drawn) | 10.2%
CCC(C)Sc1nc2ccccc2n1CC(=O)O (stereo not drawn) | 8.32%
O=C(NNc1c(Cl)cncc1Cl)c1cccs1 | 14.5%
COc1cccc(N2C(=O)C(c3ccccc3)=C(c3nc4ccccc4s3)C2NC(C)=O)c1 (stereo not drawn) | 6.19%
CCCOc1ccc(-c2c(C(=O)N/N=C/c3ccc(OC)cc3)nnn2-c2nonc2N)cc1 | 1.58%
CC(=O)c1sc(NC(=O)CN2C(=O)C3CC=CCC3C2=O)nc1-c1ccccc1 (stereo not drawn) | 10.4%
CN(C(=O)COc1ncnc2sccc12)c1ccccc1 | 5.67%
O=C1c2ccccc2C(O)(c2ncc[nH]2)N1CCc1ccccc1 (stereo not drawn) | 0.576%
Clc1ccc(C(Cn2ccnc2)OCc2c(Cl)cccc2Cl)c(Cl)c1 (stereo not drawn) | 15.6%
Cc1ccc(OCC(=O)N2CCN(C(=O)c3cccs3)CC2)cc1 | -6.29%
Cc1ccc(CCNC(=O)c2cc(S(=O)(=O)N3CCOCC3)cn2C)cc1 | 10.4%
Cc1ccc(/C=N/NC(=O)c2nnn(-c3nonc3N)c2CN(C)c2ccccc2)s1 | 11.2%
O=C(Nc1cccnc1)c1cc2cc(Br)ccc2o1 | 19.5%
O=c1[nH]nc(-c2ccccc2)c2ccccc12 | 1.65%
CCCSc1nc(C)cc(=O)[nH]1 | 16%
O=C(NNc1ccccc1)/C(=C\c1cccnc1)NC(=O)c1ccccc1 | 4.41%
O=C(COC(=O)/C=C/c1ccccc1Cl)NCc1ccco1 | 35.7%
COc1ccc2c(c1)C(=O)N1[C@H]3c4cc(OC)ccc4OC[C@@H]3[C@H](c3ccccc3)[C@]1(C)C(=O)N2 | 14.6%
COCCCNC(=O)c1cc2c(=O)n(C)c3ccccc3c2n1C | -8.02%

Compound | hERG current change (%, negative = inhibition) at 1uM
Cc1cc(O)c(C(=O)Cc2csc(C)n2)c(O)c1 | -1.71%
O=C(COC(=O)/C=C/c1ccc(Cl)cc1Cl)NCCC1=CCCCC1 | 8.02%
CC(C)(C)C(=O)Nc1cccc2[nH]ncc12 | 3.91%
O=C(c1c[nH]c(C(=O)C(Cl)(Cl)Cl)c1)c1ccccc1Br | 14.5%
C=CCSc1ncccc1C(=O)O | 10.5%
CCCN(CCC)CCCNC(=O)c1cc2c(-c3ccc(OC)c(OC)c3)nn(C)c2s1 | 5.71%
CCOC(=O)C1=C(C)N(CC(C)C)C(=O)C1 | 14.5%
Cc1ccc(S(=O)(=O)Cn2nnnc2C(CC(C)C)N2CCN(C3CCCC3)CC2)cc1.Cl (stereo not drawn) | 6.31%
CCC(=O)NC(Nc1sc2c(c1C(=O)OC)CCCC2)(C(F)(F)F)C(F)(F)F | 11.5%
COc1ccc(NC(=O)CN2C(=O)COc3ccccc32)cc1OC | 21.9%
CSc1nc(Cl)cc(=O)[nH]1 | 11.4%
Cc1cc(NC(=O)c2cc(-c3ccc(C)c(C)c3)nc3ccccc23)no1 | 9.42%
CN(c1ccccc1C(=O)Nc1cccnc1)S(C)(=O)=O | 4.33%
COc1ccc(-c2noc(C3CCCN(C(=O)Nc4ccccc4)C3)n2)cc1 (stereo not drawn) | 4.05%
CCCOc1ccc(C(=O)Nc2c[nH]c(=O)[nH]c2=O)cc1 | -1.98%
O=C(O)/C=C/c1cnc2ccccc2c1 | 10.1%
CCCc1c(O)nc(SCCN(CC)CC)n(C(=O)c2ccccc2)c1=O.Cl | -23.1%
Cc1cccc(NC2=NCC(=O)N2Cc2ccccc2)c1 | 16.3%
Cc1ccc(SCC(=O)NCc2ccc(F)cc2)cc1 | 5.31%
CCOC(=O)c1ccc(-c2ccc3[nH]c4ccccc4c(=O)c3c2)cc1F | 11.1%
CC(=O)Oc1c(Sc2ccccc2[N+](=O)[O-])c(C)nn1C(C)(C)C | -1.5%
